Test results as given in the supplement of paper PMC4604168 (melanoma cell lines).
This is one part of the list. Single values are uncertain, as repeats are few or missing.

The molecules below were run on A2058 (assay: cell count relative to DMSO control; melanoma cells; higher = more viable cells). Details: library dose: standard library concentration; 72 h.
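Further: cells treated in 1,536-well plates, then fixed and DAPI-stained, with nuclei counted from automated high-throughput microscope images.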

Structure (SMILES)	cell count
OCc1c[nH]c2ccccc12 [Indole-3-carbinol] + CN(C)S(=O)(=O)c1ccc2c(c1)/C(=C/c1cc3c([nH]1)CCCC3)C(=O)N2 [SU6656] (first compound 4 µM, partner dose 2 µM)	96.7%
Cn1c(Nc2ccc(C(F)(F)F)cc2)nc2cc(Oc3ccnc(-c4ncc(C(F)(F)F)[nH]4)c3)ccc21 + COc1cc2c(Oc3ccc4[nH]c(C)cc4c3F)ncnc2cc1OCCCN1CCCC1 [cediranib] (first compound 0.4 µM, partner dose 2 µM)	68.7%
Clc1ccc(Nc2nnc(Cc3ccncc3)c3ccccc23)cc1 [vatalanib] + C=CCn1c(=O)c2cnc(Nc3ccc(N4CCN(C)CC4)cc3)nc2n1-c1cccc(C(C)(C)O)n1 [MK1775] (first compound 10 µM, partner dose 0.1 µM)	82.9%
C#Cc1cccc(Nc2ncnc3cc(OCCOC)c(OCCOC)cc23)c1 [erlotinib] + COc1ccc(Cl)c(Nc2nc3ccccc3nc2NS(=O)(=O)c2cccc(NC(=O)C(C)(C)N)c2)c1 [XL147] (first compound 4 µM, partner dose 4 µM)	62%
Clc1ccc(Nc2nnc(Cc3ccncc3)c3ccccc23)cc1 [vatalanib] + CC(C)(C)c1cnc(CSc2cnc(NC(=O)C3CCNCC3)s2)o1 [SNS-032] (first compound 10 µM, partner dose 0.05 µM)	61.6%
Nc1cccc2c1CN(C1CCC(=O)NC1=O)C2=O (stereo not drawn) [lenalidomide] + C[C@@H]1CCN(C(=O)CC#N)C[C@@H]1N(C)c1ncnc2[nH]ccc12 [CP690550] (first compound 5 µM, partner dose 5 µM)	137%
Cn1c(Nc2ccc(C(F)(F)F)cc2)nc2cc(Oc3ccnc(-c4ncc(C(F)(F)F)[nH]4)c3)ccc21 + CC1(C)NC(=O)N(c2ccc([N+](=O)[O-])c(C(F)(F)F)c2)C1=O [nilutamide] (first compound 0.4 µM, partner dose 5 µM)	58.8%
Nc1cccc2c1CN(C1CCC(=O)NC1=O)C2=O (stereo not drawn) [lenalidomide] + CN(NC(=O)CC(=O)NN(C)C(=S)c1ccccc1)C(=S)c1ccccc1 [STA4783] (first compound 5 µM, partner dose 0.03 µM)	10.2%
OCc1c[nH]c2ccccc12 [Indole-3-carbinol] + O=C(CCCCCCC(=O)Nc1ccccc1)NO [vorinostat] (first compound 4 µM, partner dose 0.4 µM)	106%
C#Cc1cccc(Nc2ncnc3cc(OCCOC)c(OCCOC)cc23)c1 [erlotinib] + Nc1cccc2c1CN(C1CCC(=O)NC1=O)C2=O [lenalidomide] (first compound 4 µM, partner dose 5 µM)	78.1%
Clc1ccc(Nc2nnc(Cc3ccncc3)c3ccccc23)cc1 [vatalanib] + CO[C@@H]1[C@H](N(C)C(=O)c2ccccc2)C[C@H]2O[C@]1(C)n1c3ccccc3c3c4c(c5c6ccccc6n2c5c31)C(=O)NC4 [Midostaurin] (first compound 10 µM, partner dose 0.4 µM)	41.5%
Cn1c(Nc2ccc(C(F)(F)F)cc2)nc2cc(Oc3ccnc(-c4ncc(C(F)(F)F)[nH]4)c3)ccc21 + C[C@@H]1CCN(C(=O)CC#N)C[C@@H]1N(C)c1ncnc2[nH]ccc12 [CP690550] (first compound 0.4 µM, partner dose 5 µM)	90.3%
Cn1c(Nc2ccc(C(F)(F)F)cc2)nc2cc(Oc3ccnc(-c4ncc(C(F)(F)F)[nH]4)c3)ccc21 + NCC(=O)Nc1ccc(-n2nc(C(F)(F)F)cc2-c2ccc3c(ccc4ccccc43)c2)cc1 [OSU03012] (first compound 0.4 µM, partner dose 5 µM)	70.5%
O=C(CCCCCCC(=O)Nc1ccccc1)NO [vorinostat] + NC(=O)Nc1cc(-c2cccc(F)c2)sc1C(=O)N[C@H]1CCCNC1 [AZD7762] (first compound 0.4 µM, partner dose 0.1 µM)	64.3%
C#Cc1cccc(Nc2ncnc3cc(OCCOC)c(OCCOC)cc23)c1 [erlotinib] + Cc1nc(Nc2ncc(C(=O)Nc3c(C)cccc3Cl)s2)cc(N2CCN(CCO)CC2)n1 [dasatanib] (first compound 4 µM, partner dose 0.02 µM)	47.8%
Cn1c(Nc2ccc(C(F)(F)F)cc2)nc2cc(Oc3ccnc(-c4ncc(C(F)(F)F)[nH]4)c3)ccc21 + O=C(CCCCCCC(=O)Nc1ccccc1)NO [vorinostat] (first compound 0.4 µM, partner dose 0.4 µM)	64.3%
C#Cc1cccc(Nc2ncnc3cc(OCCOC)c(OCCOC)cc23)c1 [erlotinib] + COc1cc2c(Oc3ccc4[nH]c(C)cc4c3F)ncnc2cc1OCCCN1CCCC1 [cediranib] (first compound 4 µM, partner dose 2 µM)	78.4%

Structure (SMILES)	cell count
C#Cc1cccc(Nc2ncnc3cc(OCCOC)c(OCCOC)cc23)c1 [erlotinib] + CN(C)S(=O)(=O)c1ccc2c(c1)/C(=C/c1cc3c([nH]1)CCCC3)C(=O)N2 [SU6656] (first compound 4 µM, partner dose 2 µM)	67.9%
Clc1ccc(Nc2nnc(Cc3ccncc3)c3ccccc23)cc1 [vatalanib] + C[C@@H]1CCN(C(=O)CC#N)C[C@@H]1N(C)c1ncnc2[nH]ccc12 [CP690550] (first compound 10 µM, partner dose 5 µM)	69.7%
C#Cc1cccc(Nc2ncnc3cc(OCCOC)c(OCCOC)cc23)c1 [erlotinib] + Cn1c(Nc2ccc(C(F)(F)F)cc2)nc2cc(Oc3ccnc(-c4ncc(C(F)(F)F)[nH]4)c3)ccc21 [CHIR265] (first compound 4 µM, partner dose 0.4 µM)	59.4%
Cn1c(Nc2ccc(C(F)(F)F)cc2)nc2cc(Oc3ccnc(-c4ncc(C(F)(F)F)[nH]4)c3)ccc21 + CN(C)S(=O)(=O)c1ccc2c(c1)/C(=C/c1cc3c([nH]1)CCCC3)C(=O)N2 [SU6656] (first compound 0.4 µM, partner dose 2 µM)	61.6%
OCc1c[nH]c2ccccc12 [Indole-3-carbinol] + COc1cc(Nc2ncc(F)c(Nc3ccc4c(n3)NC(=O)C(C)(C)O4)n2)cc(OC)c1OC [Tamatinib] (first compound 4 µM, partner dose 2 µM)	72.9%
Cn1c(Nc2ccc(C(F)(F)F)cc2)nc2cc(Oc3ccnc(-c4ncc(C(F)(F)F)[nH]4)c3)ccc21 + Cn1cncc1[C@@](N)(c1ccc(Cl)cc1)c1ccc2c(c1)c(-c1cccc(Cl)c1)cc(=O)n2C [tipifarnib] (first compound 0.4 µM, partner dose 0.05 µM)	59.5%
Clc1ccc(Nc2nnc(Cc3ccncc3)c3ccccc23)cc1 [vatalanib] + O=C(CCCCCCC(=O)Nc1ccccc1)NO [vorinostat] (first compound 10 µM, partner dose 0.4 µM)	77.7%
C#Cc1cccc(Nc2ncnc3cc(OCCOC)c(OCCOC)cc23)c1 [erlotinib] + NCC(=O)Nc1ccc(-n2nc(C(F)(F)F)cc2-c2ccc3c(ccc4ccccc43)c2)cc1 [OSU03012] (first compound 4 µM, partner dose 5 µM)	63.1%
Cn1c(Nc2ccc(C(F)(F)F)cc2)nc2cc(Oc3ccnc(-c4ncc(C(F)(F)F)[nH]4)c3)ccc21 + O=C(O)c1ccc(-c2c[nH]c3ncc(-c4ccccc4)cc23)cc1C1CCCC1 [GSK650394] (first compound 0.4 µM, partner dose 0.8 µM)	80%
COCC[n+]1c2c(n(Cc3cnccn3)c1C)C(=O)c1ccccc1C2=O + O=C(CCCCCCC(=O)Nc1ccccc1)NO [vorinostat] (first compound 0.002 µM, partner dose 0.4 µM)	21.6%
C#Cc1cccc(Nc2ncnc3cc(OCCOC)c(OCCOC)cc23)c1 [erlotinib] + C[C@]1(c2nc3c(C(N)=O)cccc3[nH]2)CCCN1 [Veliparib] (first compound 4 µM, partner dose 7 µM)	63.3%
OCc1c[nH]c2ccccc12 [Indole-3-carbinol] + Nc1cccc2c1CN(C1CCC(=O)NC1=O)C2=O [lenalidomide] (first compound 4 µM, partner dose 5 µM)	99.8%
Cn1c(Nc2ccc(C(F)(F)F)cc2)nc2cc(Oc3ccnc(-c4ncc(C(F)(F)F)[nH]4)c3)ccc21 + NC(=O)Nc1cc(-c2cccc(F)c2)sc1C(=O)N[C@H]1CCCNC1 [AZD7762] (first compound 0.4 µM, partner dose 0.1 µM)	80.5%
Clc1ccc(Nc2nnc(Cc3ccncc3)c3ccccc23)cc1 [vatalanib] + COCC[n+]1c2c(n(Cc3cnccn3)c1C)C(=O)c1ccccc1C2=O [YM155] (first compound 10 µM, partner dose 0.002 µM)	64.6%
Nc1cccc2c1CN(C1CCC(=O)NC1=O)C2=O (stereo not drawn) [lenalidomide] + Cc1ccc(NC(=O)c2cccc(N(C)C)c2)cc1NC(=O)c1ccc(O)cc1 [ZM336372] (first compound 5 µM, partner dose 10 µM)	90.8%
O=C(CCCCCCC(=O)Nc1ccccc1)NO [vorinostat] + CN(C)S(=O)(=O)c1ccc2c(c1)/C(=C/c1cc3c([nH]1)CCCC3)C(=O)N2 [SU6656] (first compound 0.4 µM, partner dose 2 µM)	57.2%
